Reference: the supplement of paper PMC11417369
Some of the results follow.

The sequences below were run on PF3D7_0420300 AP2 domain 1 (GST-tagged) (assay: gcPBM binding intensity (ln(normalized median fluorescence intensity)); higher = stronger DNA binding).
Outline: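 Using an Agilent 4 × 180k array, primer-extended double-stranded 36-bp intergenic genomic probes and negative controls were exposed for 1 h to GST-fused P. falciparum DNA-binding domains expressed in E. coli. Binding was carried out in 1× PBS with 1% milk, 0.2 mg/ml BSA, 0.5% salmon testes DNA and 0.03% Triton X-100, and protein was detected with Alexa488 anti-GST antibody and a 488 nm scan. Binding intensity is the highest Masliner-normalised natural-log median intensity across replicate spots of either probe orientation.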

Sequence | gcPBM binding intensity (ln)
TAAATACATAAATACACACACATATATATATATATA [CACACA_site5549] | 9.68
ATATTTTGGGTGTTGTTTTTTTTTAAAACTCTTTAA [CACACA_negctrl_site1255] | 9.39
TTACTATTTCACTGTGCATGCAACAAAAATCTATCT [TGCATGCA_site808] | 9.23
ATTAGTTTATATGAATGATTTTTCTTTTTTTTTTTT [CACACA_negctrl_site88] | 9.19
CGTAGCCGCACTAACACACACAAATATACGCAATCA [CACACA_site2898] | 9.67
AAAAAAAAAAAAAATAATAAATAAATAAATAAATAA [GTGCAC_negctrl_site505] | 8.99
AAAAATAAAAAAAAATTAAAATATATATATTTTGTT [TGCATGCA_negctrl_site102] | 9.13
AGGAAAAAAAGTAGCACACAAATATTTATAATATAT [CACACA_site2437] | 9.65
GAGAGGATACATACATGTACATAAATATTTTATTTT [XGTACX_site5129] | 9.24
CATATAATAAATAATACACACATATTGGAAATATAT [CACACA_site3212] | 9.73
TTTATTTATTTATATTTTTTTATATAATTTATATAT [GTGCAC_negctrl_site301] | 9.23
AAAGGTATATATGTGTGTACATATATATATATATAT [XGTACX_site5629] | 9.36
CACATTTCTGTAGTTGCATGTAGAAAAAAAAAAAAA [TGCATGCA_site810] | 8.84
TTTTGAGAAAAAATAAAATAATAAATAAAAATACAT [XGTACX_negctrl_site66] | 9.28
AATACAATTGAAAATTGTACTTTGTTTTTTATAAAT [XGTACX_site4080] | 9.1
TTTGATTTTAATGTGTGTACACATTTATTTATATAA [XGTACX_site4806] | 9.49
GATTTATATTTTAAAAGTACAAGTTAAAATAAAAGT [XGTACX_site7059] | 9.33
ATATAAGTATAATTATGTACTTATACTTATATAAAT [XGTACX_site5585] | 9.04
AATATAAGATTATTATGTACATAATAAATATGTATT [XGTACX_site4773] | 9.29

Sequence | gcPBM binding intensity (ln)
ATATAATATCTGTATACACACATATTATATAATATT [CACACA_site5940] | 9.56
CATATTAATACAGAATGTACGGATAACAAACTGTTT [XGTACX_site7935] | 9.09
TTTTTTTTTTTGGTTACACACATTTGTATATTCTCA [CACACA_site134] | 9.67
GGTCATCATCGGTATTGTACAAAAATGTGAAAATTA [XGTACX_site639] | 9.17
ATAATTATATGATGAGTGCACAATAAAAATATCGTT [GTGCAC_site9920] | 9.41
TTTTATTTAGGAGGTGCATGTAATACGGAACATAAT [TGCATGCA_site827] | 9.42
CCATAACTCCTATGCACACATAAATATTACAGAGAT [CACACA_site5984] | 9.39
GCACGAAACAATGTATATATATATATATATATATAT [GTGCAC_negctrl_site412] | 9.12
TTCTTTATGGAAGTGTAAAAAAAGAAATACTTTTTT [CACACA_negctrl_site915] | 8.7
ATATAACAGAAACACACACACATATATATATATTAT [CACACA_site4140] | 10.2
ATAAATGATAGTAAAAGTACACAAAATGTTTTAAAA [XGTACX_site1623] | 9.07
TATTTTTATATATAATCACACATTGGAATGTTCTAA [CACACA_site5540] | 9.14
TACACAAACAGACACACACACACACGCGCACAAAAA [CACACA_site7192] | 10.2
ATTATAAATATATTTTGTACTTAAAAGGAAAAAAAA [XGTACX_site55] | 9.02
ATTACATGTATACATGTCAACACGTATAAAAAAAAA [CACACA_negctrl_site1154] | 9.06
AATAAGCATAGACACACACACAAAAAAAAAAAAAAA [CACACA_site6476] | 9.66
GATTATCTTCAAGTATGTACACACTATATATAATAA [XGTACX_site5108] | 9.3
AATAAATAGAGGAAATGTACATATAAAAATAATTTC [XGTACX_site2454] | 9.42
TTAACATCTTCGTTGACACACAAAAAAAAAAATAAT [CACACA_site1819] | 9.2

Sequence | gcPBM binding intensity (ln)
AACATTTATATTTAAGTGCAGATGCTGTAATTTAGA | 9.09
ATGCGTTCATACATACATACATACATACAATTTGTA [TGCATGCA_negctrl_site50] | 9.3
TTTTTATAACAAAGTATTTAAATAATTTATACTAAT [TGCATGCA_negctrl_site104] | 8.86
GAACAAATTACAAGTTGTACTTTATGTAAATTATTA [XGTACX_site5304] | 9.08
TGCTCATGAGGTCAGAGTACAAAATAGTAAATGTAT [XGTACX_site2973] | 9.1
TTTTGAATTAAACAAGCATGCTTTATTTACTTCTTA [TGCATGCA_site289] | 9.07
TAATTTATTAATAATTGTACAGATATTATACTTAAA [XGTACX_site8947] | 8.93
TAATTCATCCTATGCACACACAATACCAAAATGTGC [CACACA_site4269] | 9.56
TTTATTTTTATTTTTGTGCACGGGATTAAATAAAAG [GTGCAC_site9842] | 8.95
TTTTTTTTTTTTTTTCTTTTTTATTCTCACAAAAAA [CACACA_negctrl_site1790] | 8.31
AAGAAAAGTAAATATGCATGTAGGGTAGGTTATTTT [TGCATGCA_site46] | 9.3
CCTTTTTCTAATGGATGTACTTATTATATACATTAT [XGTACX_site281] | 9.37
ATATTTTTTCTGAACGGTACAGAATTTTTCAAGATT [XGTACX_site484] | 9.16
TATATATATCTGTATACACACATATGTATGTTATGT [CACACA_site6090] | 9.7
TTATTTTATCACACATGTACATATGTTAATTTTTTT [XGTACX_site5598] | 9.34
AAATTTATATATAGTTGTACAAAAATATGTTTCGTA [XGTACX_site4801] | 9.24
AAAATAAAAAGAAATAAATTAACAGTAAGGAAAAAA [CACACA_negctrl_site1105] | 9.54
TGAATAATCAATAGTACACACATATAAATATATATA [CACACA_site2813] | 9.61
